Variants at the floor of the assay are shown more often than the library holds them.
B1: TPR 5TU (parent)
chain: GGAUCUUCUCGAUCUAACAAAAAAGACAAAUCUGCCACAAAGCUUGAGAGCAUCUUCGGAUGCAGAGGCGGCAGCCUUCGGUGGCGCGAUAGCGCCAACGUUCUCAACUAUGACACGCAAAACGCGUGCUCCGUUGAAUGGAGUUUAUCAUG

Variants of: B1
Assay: polymerase ribozyme fitness, log enrichment relative to wild type (log ratio); higher = more active; in vitro selection for triplet polymerase activity
How it was run: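 Each subunit of a heterodimeric triplet polymerase ribozyme was represented by a PCR-built, transcribed mutant library that underwent triplicate single-round in vitro selection with frozen incubation at −7 °C. Extended constructs were recovered by gel excision, streptavidin-bead capture and RT-PCR, and Illumina sequencing of input and output libraries kept genotypes with ≥10 input reads and ≥1 read per output. Fitness is the logarithm of genotype enrichment relative to wild-type enrichment, from inverse-variance-weighted replicate averages, with a logarithm base of 2.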
In the case of C38U C79G G94A C95G A97C, the “polymerase ribozyme fitness (log ratio)” value is reported as no more than -4.2. With C36U G71A G94A U135G the “polymerase ribozyme fitness (log ratio)” value was no more than -4.2. With A39C U130G the “polymerase ribozyme fitness (log ratio)” value was no more than -4.2. For C38A A41U A52C, the “polymerase ribozyme fitness (log ratio)” value was -2.5. With A37C C54U G80A G84A A97U G126A G140C the “polymerase ribozyme fitness (log ratio)” value was no more than -4.2. In the case of C38U G86A, the “polymerase ribozyme fitness (log ratio)” value is reported as -1.16. In the case of C38U G86U, the “polymerase ribozyme fitness (log ratio)” value is reported as -1.57. With A39C U82G C99G A110U U127A the “polymerase ribozyme fitness (log ratio)” value was no more than -4.2. In the case of C36A G84U C114A A120U G143U, the “polymerase ribozyme fitness (log ratio)” value is reported as -4.19. For A37G G74U C87G A115C, the “polymerase ribozyme fitness (log ratio)” value was no more than -4.2. In the case of A39C A52G G70A C99G G100A U144A, the “polymerase ribozyme fitness (log ratio)” value is reported as no more than -4.2. In the case of C38A A64G C69G C87U U134A U151C, the “polymerase ribozyme fitness (log ratio)” value is reported as no more than -4.2. With C38U G42C C96G the “polymerase ribozyme fitness (log ratio)” value was no more than -4.2. For A37C G48A C54U C95G A97U, the “polymerase ribozyme fitness (log ratio)” value was no more than -4.2. In the case of C38G A40G G83A, the “polymerase ribozyme fitness (log ratio)” value is reported as -3.86. In the case of C36G G84A, the “polymerase ribozyme fitness (log ratio)” value is reported as -4.19. With C38U C63A G94C the “polymerase ribozyme fitness (log ratio)” value was -0.694. For A39G C63G G70C C87U A91G C99A A120G, the “polymerase ribozyme fitness (log ratio)” value was no more than -4.2. With C38U C54A G71A the “polymerase ribozyme fitness (log ratio)” value was no more than -4.2. For C38G A39U A60C G92U U101A A113U, the “polymerase ribozyme fitness (log ratio)” value was no more than -4.2. For C38U G58C G59A C85A U90A C93G C129G G133A C149G, the “polymerase ribozyme fitness (log ratio)” value was no more than -4.2. With A39C A40C U77G G81C C95U A120C the “polymerase ribozyme fitness (log ratio)” value was no more than -4.2. In the case of A37G A52C C95U A98C, the “polymerase ribozyme fitness (log ratio)” value is reported as -3.46. For A37U A89C C96U C103G U111A, the “polymerase ribozyme fitness (log ratio)” value was no more than -4.2. With A39G A52C C54G C85U C125U G126U A147C the “polymerase ribozyme fitness (log ratio)” value was no more than -4.2. For A37U G83C C85A C93G A119G U139G, the “polymerase ribozyme fitness (log ratio)” value was no more than -4.2. In the case of A37C A40C C69U C75A G88A G133A U139C A150C, the “polymerase ribozyme fitness (log ratio)” value is reported as no more than -4.2. With C38U A47U C79A G83A G133U the “polymerase ribozyme fitness (log ratio)” value was no more than -4.2. With A37C U102G the “polymerase ribozyme fitness (log ratio)” value was no more than -4.2. In the case of C38A C93G, the “polymerase ribozyme fitness (log ratio)” value is reported as no more than -4.2. For A39C A49U C116G, the “polymerase ribozyme fitness (log ratio)” value was no more than -4.2. With C36U U90G A91C C93U G94U U134A the “polymerase ribozyme fitness (log ratio)” value was no more than -4.2. In the case of A37U G58U C96U C118G U146C, the “polymerase ribozyme fitness (log ratio)” value is reported as -3.08. For C38U G48A A49C G71U G81A, the “polymerase ribozyme fitness (log ratio)” value was no more than -4.2. For A39C A89C C103G, the “polymerase ribozyme fitness (log ratio)” value was no more than -4.2. For C38G G80C C99G C116U, the “polymerase ribozyme fitness (log ratio)” value was -0.78. For C38U A49C G86A U130A G143A, the “polymerase ribozyme fitness (log ratio)” value was no more than -4.2. In the case of C36U U53A C57A C63A G71A U82A G86C A98G, the “polymerase ribozyme fitness (log ratio)” value is reported as no more than -4.2. In the case of C38G A40U U55A U56A C87U A89C, the “polymerase ribozyme fitness (log ratio)” value is reported as -3.99. In the case of A37U C57U G88A G92A, the “polymerase ribozyme fitness (log ratio)” value is reported as no more than -4.2. With A37C U56A U90A C103G A121U C123U G141C the “polymerase ribozyme fitness (log ratio)” value was no more than -4.2. For A37C A49C G59C G83C C95A A122U G143U A150G, the “polymerase ribozyme fitness (log ratio)” value was no more than -4.2. With A37C G70A C85G G88U C99U the “polymerase ribozyme fitness (log ratio)” value was no more than -4.2. In the case of C38U A40U C116U U135A, the “polymerase ribozyme fitness (log ratio)” value is reported as 0.399. For A37U A52C C57A C85G A137U A142U, the “polymerase ribozyme fitness (log ratio)” value was no more than -4.2. For A37U C38U C76G C93U C96A C118U G143U, the “polymerase ribozyme fitness (log ratio)” value was no more than -4.2. With C38U A49U U61A C76A C93U G100C A106U A122U C149U the “polymerase ribozyme fitness (log ratio)” value was no more than -4.2. For C38U A64C U109G A113G C114U C125U C129G C149G, the “polymerase ribozyme fitness (log ratio)” value was no more than -4.2. With C38G G46A A52G A91U G112C U145G the “polymerase ribozyme fitness (log ratio)” value was no more than -4.2. In the case of C36U C43U A52C G58A C76U C114U U135C, the “polymerase ribozyme fitness (log ratio)” value is reported as no more than -4.2. With C38G G42C U61G G86U the “polymerase ribozyme fitness (log ratio)” value was no more than -4.2. For C38A A66U C99G, the “polymerase ribozyme fitness (log ratio)” value was no more than -4.2. With C38U G42C U55A C105A C116A G124C U148G the “polymerase ribozyme fitness (log ratio)” value was no more than -4.2. In the case of A39G C72A C93A A115U G152C, the “polymerase ribozyme fitness (log ratio)” value is reported as no more than -4.2. In the case of A37C A64C G71A C85A G126C, the “polymerase ribozyme fitness (log ratio)” value is reported as no more than -4.2. With C38U A52C U61A C85G A89U C96G G140A the “polymerase ribozyme fitness (log ratio)” value was no more than -4.2. For C38U G58C C96U A98G, the “polymerase ribozyme fitness (log ratio)” value was 0.385. With A37G C57U G74U C76G G88A U148A the “polymerase ribozyme fitness (log ratio)” value was no more than -4.2. In the case of C38A U56A G86C, the “polymerase ribozyme fitness (log ratio)” value is reported as -3.01. With A37U U135A the “polymerase ribozyme fitness (log ratio)” value was -2.34. For C38U G48U U61A G65A C87U A97U, the “polymerase ribozyme fitness (log ratio)” value was no more than -4.2. With C38U C87G C96U the “polymerase ribozyme fitness (log ratio)” value was no more than -4.2. In the case of A37C G83C C85G C96G U130G G141A U148G, the “polymerase ribozyme fitness (log ratio)” value is reported as no more than -4.2. In the case of C38G C43U C87A C132G U135G G136C U146A, the “polymerase ribozyme fitness (log ratio)” value is reported as no more than -4.2. For A39C G48A C93U C95G C96A A113U C114U A120G G136C U148G, the “polymerase ribozyme fitness (log ratio)” value was no more than -4.2. In the case of C38U U45A C54A A66C C85U G117A A120C, the “polymerase ribozyme fitness (log ratio)” value is reported as no more than -4.2. For C38U U44A U53A G58A G88C A122G C149U U151C, the “polymerase ribozyme fitness (log ratio)” value was no more than -4.2. With A37G G92A U148C C149G the “polymerase ribozyme fitness (log ratio)” value was no more than -4.2. For A37U U45A G46C C85U C105U U144A, the “polymerase ribozyme fitness (log ratio)” value was no more than -4.2. With C38U G100A A107C G128U the “polymerase ribozyme fitness (log ratio)” value was no more than -4.2. With A39C C75G A138C the “polymerase ribozyme fitness (log ratio)” value was no more than -4.2. For A39C U45A A52C G84U, the “polymerase ribozyme fitness (log ratio)” value was no more than -4.2. For A39C G92U G100C U144G, the “polymerase ribozyme fitness (log ratio)” value was no more than -4.2. With A37G G50A C105G A121C G133U G136U the “polymerase ribozyme fitness (log ratio)” value was no more than -4.2. With A39C C87U U101G G117U the “polymerase ribozyme fitness (log ratio)” value was -3.2. For C36G C95A G133U, the “polymerase ribozyme fitness (log ratio)” value was no more than -4.2. For C38A G50C C54G C76U G94A C105A, the “polymerase ribozyme fitness (log ratio)” value was no more than -4.2. In the case of A39C U77C C93U, the “polymerase ribozyme fitness (log ratio)” value is reported as no more than -4.2. In the case of A39C U104G U134A G143U, the “polymerase ribozyme fitness (log ratio)” value is reported as no more than -4.2. For A37U A47C C85U C95U A113C U148A G152U, the “polymerase ribozyme fitness (log ratio)” value was no more than -4.2. With A37G U82A A89C the “polymerase ribozyme fitness (log ratio)” value was no more than -4.2. In the case of C38U G88C G126C A147C, the “polymerase ribozyme fitness (log ratio)” value is reported as no more than -4.2. With C38U U53A C105U the “polymerase ribozyme fitness (log ratio)” value was 0.169.
